{"source": "the supplement of paper PMC10369915", "binders": {"B1": {"name": "CLEC12B_Y7 (peptide)", "chain": "SEEVTYATLTF"}, "B2": {"name": "CNBD1_Y70_Q69K (peptide)", "chain": "TFMKKYPKVFL"}, "B3": {"name": "CPO_Y278_K273N (peptide)", "chain": "NYGTNYRVGSS"}, "B4": {"name": "CLTCL1_Y1043_R1046C (peptide)", "chain": "TRVMEYISCLD"}, "B5": {"name": "CPT1B_Y534 (peptide)", "chain": "VIESSYQVAKA"}, "B6": {"name": "CLEC12A_Y242_K244Q (peptide)", "chain": "YYHCTYKQRMI"}, "B7": {"name": "COL22A1_Y37_V35I (peptide)", "chain": "CKSIHYDLVFL"}, "B8": {"name": "CPT1B_Y534_E531K (peptide)", "chain": "VIKSSYQVAKA"}, "B9": {"name": "CPS1_Y872 (peptide)", "chain": "IEKLTYIDKWF"}}, "note": "Some of the results follow. Rule as the data show it: active = 3.2 or more and inactive = the rest. Most of these values are background signal.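 Also: displayed peptides selected on beads carrying the immobilized SH2 domain, with library peptides lacking any tyrosine serving as negative controls.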", "data": [{"target": "SHP2 C-SH2 domain E139D", "assay": "enrichment score (SH2-bound / input frequency) (ratio); higher = stronger binding; tyrosines were phosphorylated by kinases first", "details": "peptide library: pTyr-Var", "values": [{"binder": "B1", "enrichment score": "inactive: 0.88"}, {"binder": "B2", "enrichment score": "inactive: 1.36"}, {"binder": "B3", "enrichment score": "inactive: 0.595"}, {"binder": "B4", "enrichment score": "inactive: 1.16"}, {"binder": "B5", "enrichment score": "inactive: 0.495"}, {"binder": "B6", "enrichment score": "active: 3.43"}, {"binder": "B7", "enrichment score": "inactive: 1.36"}, {"binder": "B8", "enrichment score": "inactive: 1.13"}, {"binder": "B9", "enrichment score": "inactive: 0.659"}]}, {"target": "SHP2 C-SH2 domain wild-type", "assay": "enrichment score (SH2-bound / input frequency) (ratio); higher = stronger binding; tyrosines were phosphorylated by kinases first", "details": "peptide library: pTyr-Var", "values": [{"binder": "B1", "enrichment score": "inactive: 0.997"}, {"binder": "B2", "enrichment score": "inactive: 1.04"}, {"binder": "B3", "enrichment score": "inactive: 0.559"}, {"binder": "B4", "enrichment score": "inactive: 1.13"}, {"binder": "B5", "enrichment score": "inactive: 0.494"}, {"binder": "B6", "enrichment score": "inactive: 3.12"}, {"binder": "B7", "enrichment score": "inactive: 1.51"}, {"binder": "B8", "enrichment score": "inactive: 0.693"}, {"binder": "B9", "enrichment score": "inactive: 0.715"}]}, {"target": "SHP2 N-SH2 domain L43F", "assay": "enrichment score (SH2-bound / input frequency) (ratio); higher = stronger binding; tyrosines were phosphorylated by kinases first", "details": "peptide library: pTyr-Var", "values": [{"binder": "B1", "enrichment score": "inactive: 1.03"}, {"binder": "B2", "enrichment score": "inactive: 0.977"}, {"binder": "B3", "enrichment score": "inactive: 0.63"}, {"binder": "B4", "enrichment score": "inactive: 1.13"}, {"binder": "B5", "enrichment score": "inactive: 0.621"}, {"binder": "B6", "enrichment score": "inactive: 2.84"}, {"binder": "B7", "enrichment score": "inactive: 1.12"}, {"binder": "B8", "enrichment score": "inactive: 0.931"}, {"binder": "B9", "enrichment score": "inactive: 0.63"}]}, {"target": "SHP2 N-SH2 domain T42A", "assay": "enrichment score (SH2-bound / input frequency) (ratio); higher = stronger binding; tyrosines were phosphorylated by kinases first", "details": "peptide library: pTyr-Var", "values": [{"binder": "B1", "enrichment score": "inactive: 1.25"}, {"binder": "B2", "enrichment score": "inactive: 1.19"}, {"binder": "B3", "enrichment score": "inactive: 0.619"}, {"binder": "B4", "enrichment score": "inactive: 1.05"}, {"binder": "B5", "enrichment score": "inactive: 0.557"}, {"binder": "B6", "enrichment score": "inactive: 2.66"}, {"binder": "B7", "enrichment score": "inactive: 1.63"}, {"binder": "B8", "enrichment score": "inactive: 0.742"}, {"binder": "B9", "enrichment score": "inactive: 0.781"}]}, {"target": "SHP2 N-SH2 domain T52S", "assay": "enrichment score (SH2-bound / input frequency) (ratio); higher = stronger binding; tyrosines were phosphorylated by kinases first", "details": "peptide library: pTyr-Var", "values": [{"binder": "B1", "enrichment score": "inactive: 1.01"}, {"binder": "B2", "enrichment score": "inactive: 1.2"}, {"binder": "B3", "enrichment score": "inactive: 0.602"}, {"binder": "B4", "enrichment score": "inactive: 0.756"}, {"binder": "B5", "enrichment score": "inactive: 0.593"}, {"binder": "B6", "enrichment score": "inactive: 2.68"}, {"binder": "B7", "enrichment score": "inactive: 1.19"}, {"binder": "B8", "enrichment score": "inactive: 0.708"}, {"binder": "B9", "enrichment score": "inactive: 1.17"}]}, {"target": "SHP2 N-SH2 domain wild-type", "assay": "enrichment score (SH2-bound / input frequency) (ratio); bacterial display of known human phosphotyrosine sites (pTyr-Var adds point mutants) read by sequencing; higher = stronger binding; tyrosines were phosphorylated by kinases first", "details": "peptide library: pTyr-Var", "values": [{"binder": "B1", "enrichment score": "inactive: 0.999"}, {"binder": "B2", "enrichment score": "inactive: 1.02"}, {"binder": "B3", "enrichment score": "inactive: 0.724"}, {"binder": "B4", "enrichment score": "inactive: 1.19"}, {"binder": "B5", "enrichment score": "inactive: 0.662"}, {"binder": "B6", "enrichment score": "inactive: 2.84"}, {"binder": "B7", "enrichment score": "inactive: 1.69"}, {"binder": "B8", "enrichment score": "inactive: 0.822"}, {"binder": "B9", "enrichment score": "inactive: 0.772"}]}]}
